Laboratory results from PubChem BioAssay AID1345083 (National Center for Advancing Translational Sciences (NCATS), 2018).
In all, about 94,000 compounds went through this assay and about 6,200 (6.6%) were called active. This list was built around the results that the source calls inconclusive (neither active nor inactive); the mix of calls is not that of the screen. The call rests on the fitted dose curve; in most records, active means well fitted inhibition curve with a large enough effect; inconclusive means small, poorly fitted or top-dose-only effect; inactive means flat fitted curve, though single readings scatter. A potency beside an inconclusive call is a rough fit, not a confirmed value.

Experiment: Cytotoxic Profiling in HEK 293 Cell Line of Diverse Libraries Using Quantitative High-Throughput Screening; further: nearly all actives have a fitted effect of over 60% in size
Conditions: HEK 293 viability, ATP luminescence (CellTiter-Glo), 48-72 h; activity change, negative = cytotoxicity: at 115 µM (top of the series) unless noted; series mostly up to 115 µM
Procedure, shortened: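 CellTiter-Glo luminescence (cellular ATP) was read after 48 or 72 hr of compound exposure at 37 degree Celsius. Cells were HEK 293 plated at 250 cells/well.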
On the % scale 0 is the no-effect control and ±100 the full control effect; potency means the concentration at half of the fitted maximal effect; tags describe the fitted curve by direction and shape.

| SMILES | activity change, negative = cytotoxicity | Potency | outcome |
| --- | --- | --- | --- |
| Cc1cc(C(=O)Nc2cccc(-c3nnc4n3CCCC4)c2)n[nH]1 | inactive: -10.8% |  |  |
| COc1cccc(CNC(=O)C2CCc3nnc(C4CCN(C(C)=O)CC4)n32)c1 (centres undefined) | inactive: 0.664% |  |  |
| COc1ccc(C2(C(=O)NCc3ccccc3)CCOCC2)cc1 | inactive: -20.2% [at 172 µM] |  |  |
| Cn1ccnc1CN1CCCC(CCc2ccccc2)C1 (centres undefined) |  | inconclusive: 50.1 µM [inhibitor, partial curve, poor fit] |  |
| CN1CCCCCCN(C(=O)COc2ccccc2)[C@H]2CCC[C@H]2C1=O | inactive: -20.7% |  |  |
| CN(C)C(=O)c1ccc2c(c1)n(Cc1cccc(F)c1)c(=O)c1ccnn12 |  | inconclusive: 31.6 µM [inhibitor, partial curve, poor fit] |  |
| COc1cccc(CN2CCCC23Cc2ccccc2CNC3=O)c1 (centres undefined) |  | inconclusive: 79.4 µM [inhibitor, partial curve] |  |
| COc1ccccc1-c1nc2nccc(-c3cc4ccccc4o3)n2n1 |  | active: 89.1 µM |  |
| CC[C@H]1CN(C(=O)c2ccc(F)cc2)CC[C@H]1CC(=O)NC(C)C |  |  | inactive [at 172 µM] |
| C#CCNC(=O)c1cc(-c2ccccc2C(F)(F)F)nc2c1cnn2C |  | inconclusive: 44.7 µM [inhibitor, partial curve, poor fit] |  |
| CN(Cc1cc(C2CC2)n[nH]1)c1nccc(-c2cccnc2)n1 |  | inconclusive: 50.1 µM [inhibitor, partial curve, poor fit] |  |
| Cc1ccc2c(c1)N(C(=O)Cn1ccn3nc(-c4ccc(F)cc4)c(CO)c3c1=O)CCO2 |  | inconclusive: 50.1 µM [inhibitor, partial curve, poor fit] |  |
| COC(=O)CNC(=O)c1nc(-c2cc(Cl)cc(Cl)c2)c2ccccn12 |  | active: 35.5 µM |  |
| CCOC(=O)c1ccc(NC(=O)Cn2c(-c3ccc(F)cc3)nc(C)c(CCO)c2=O)cc1 |  | inconclusive: 28.2 µM [inhibitor, full curve] |  |
| O=C(c1ccccc1)N1CCCC(n2cc(-c3nc(-c4ccccc4)no3)nn2)C1 (centres undefined) |  | inconclusive: 50.1 µM [inhibitor, partial curve, poor fit] |  |
| CN(c1ccccc1)c1ccc2nnc(-c3cc(C(=O)NCc4cccnc4)ccn3)n2n1 |  | active: 100 µM |  |
| CC1=C[C@@H](CNC(=O)COc2ccccc2)[C@H](C(C)C)C[C@H]1Cc1nc2ccncc2[nH]1 |  | inconclusive: 22.4 µM [inhibitor, full curve, poor fit] |  |
| CCOc1ccccc1C(=O)N1CCN(Cc2ccc(=O)n(C)c2)CC1 |  | inconclusive: 89.1 µM [inhibitor, single point] |  |
| O=C(Nc1ccc(F)c(Cl)c1)c1cnc(-c2ccccc2)nc1-c1ccncc1 |  | active: 35.5 µM |  |
